Laboratory results as given in PubChem BioAssay AID1347165 (National Center for Advancing Translational Sciences (NCATS), 2019).
Screen size: about 220,000 compounds; about 5,700 (2.6%) were called active. Inconclusive results, whose numbers are uncertain, are shown with a selection of clear calls. The call rests on the fitted dose curve; in most records, active means well fitted inhibition curve with a large enough effect; inconclusive means small, poorly fitted or top-dose-only effect; inactive means no such curve, though single readings can be large or run the other way. Potencies beside an inconclusive call are fits to weak or partial responses and may not hold up.

Target: Lysine-specific demethylase 5B (Homo sapiens) (UniProt Q9UGL1)
UniProt Q9UGL1, sequence (Q9UGL1 whole entry, looked up): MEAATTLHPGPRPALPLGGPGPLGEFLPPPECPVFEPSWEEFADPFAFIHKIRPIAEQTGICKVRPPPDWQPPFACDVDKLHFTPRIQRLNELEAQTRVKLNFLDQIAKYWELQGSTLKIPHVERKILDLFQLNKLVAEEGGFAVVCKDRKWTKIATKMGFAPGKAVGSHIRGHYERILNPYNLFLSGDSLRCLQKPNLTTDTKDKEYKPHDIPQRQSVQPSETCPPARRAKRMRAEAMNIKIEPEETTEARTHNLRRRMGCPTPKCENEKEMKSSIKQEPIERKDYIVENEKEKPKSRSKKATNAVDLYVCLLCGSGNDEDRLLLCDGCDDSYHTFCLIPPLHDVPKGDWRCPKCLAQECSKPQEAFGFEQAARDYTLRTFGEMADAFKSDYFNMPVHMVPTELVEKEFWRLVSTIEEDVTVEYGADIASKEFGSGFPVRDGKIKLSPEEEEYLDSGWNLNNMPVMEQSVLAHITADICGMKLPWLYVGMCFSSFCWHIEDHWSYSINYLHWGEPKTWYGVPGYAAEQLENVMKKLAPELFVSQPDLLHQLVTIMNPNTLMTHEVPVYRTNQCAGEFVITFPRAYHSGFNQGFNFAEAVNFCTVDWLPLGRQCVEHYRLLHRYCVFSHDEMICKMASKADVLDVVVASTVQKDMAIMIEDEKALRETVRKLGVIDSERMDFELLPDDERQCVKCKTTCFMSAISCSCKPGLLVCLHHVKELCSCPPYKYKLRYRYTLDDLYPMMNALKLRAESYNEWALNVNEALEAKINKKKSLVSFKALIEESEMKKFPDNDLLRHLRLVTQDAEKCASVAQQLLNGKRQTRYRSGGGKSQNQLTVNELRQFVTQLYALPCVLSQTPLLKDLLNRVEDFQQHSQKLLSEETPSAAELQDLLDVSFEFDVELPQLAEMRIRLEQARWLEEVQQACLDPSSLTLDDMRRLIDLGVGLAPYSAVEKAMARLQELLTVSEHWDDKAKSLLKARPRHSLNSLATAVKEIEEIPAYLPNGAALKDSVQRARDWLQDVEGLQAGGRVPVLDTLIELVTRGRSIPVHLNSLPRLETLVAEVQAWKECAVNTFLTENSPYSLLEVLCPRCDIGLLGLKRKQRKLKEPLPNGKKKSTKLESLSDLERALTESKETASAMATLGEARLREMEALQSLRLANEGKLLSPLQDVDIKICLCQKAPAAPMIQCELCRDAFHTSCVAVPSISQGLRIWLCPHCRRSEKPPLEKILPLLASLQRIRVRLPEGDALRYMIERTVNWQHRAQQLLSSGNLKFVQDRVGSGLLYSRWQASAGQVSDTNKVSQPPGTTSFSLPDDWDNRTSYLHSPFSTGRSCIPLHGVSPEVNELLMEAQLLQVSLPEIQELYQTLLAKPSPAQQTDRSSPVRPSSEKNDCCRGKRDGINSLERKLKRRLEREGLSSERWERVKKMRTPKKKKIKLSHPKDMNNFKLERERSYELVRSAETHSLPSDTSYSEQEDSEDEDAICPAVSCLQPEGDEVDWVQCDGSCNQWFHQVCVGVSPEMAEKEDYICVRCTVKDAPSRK
Assay: Primary screen for KDM5B Histone Demethylases FDH-coupled qHTS; further: nearly all actives have a fitted effect of over 70% in size; on activity change, negative = inhibition: 0% is about no effect
Details: FDH-coupled NADH fluorescence (FDH is formaldehyde dehydrogenase); activity change, negative = inhibition: at 57.7 µM (top of the series)
Method in brief: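 Coupled FDH/NAD⁺ fluorescence readout. KDM5BΔAP 200 nM final; compound titration, 10 min RT preincubation; substrate mix 12.5 µM H3K4me3, 25 µM 2-OG, 50 µM Fe(II), 100 µM ascorbate, 0.25 mM NAD⁺, 0.25 U/mL FDH; ΔRFU over 30 min.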
Potency means the concentration at half of the fitted maximal effect; tags describe the fitted curve by direction and shape.

Compound	Potency	activity change, negative = inhibition
O=C(Cc1ccc2c(c1)OCO2)N1CCN(Cc2ccccc2)CC(O)C1 (configuration not stated)	inconclusive: 35.5 µM [inhibitor, partial curve, poor fit]	
Cc1c(-c2ccc(Cl)cc2)c(=O)oc2ccc(OC(=O)N(C)C)cc12	inconclusive: 35.5 µM [inhibitor, single point]	
CN1Cc2ccccc2-n2ccnc2C12CCN(C(=O)c1ccc(C(F)(F)F)cc1)CC2		inactive: -15.5%
O=C1NC[C@H]2CN(Cc3ccccc3)CCN12	inconclusive: 31.6 µM [inhibitor, single point]	
CCC(=NCc1cc(OC)cc(OC)c1)c1c(O)n(C2CCCCC2)c(=O)[nH]c1=O	inconclusive: 31.6 µM [inhibitor, single point]	
CSc1ccccc1C(=O)C1CCCN(Cc2ccncc2)C1 (configuration not stated)	inconclusive: 25.1 µM [inhibitor, partial curve, poor fit]	
COc1cc2c(cc1OCc1ccncc1)NC(=O)C21CCN(c2ncc(F)cn2)CC1	inconclusive: 31.6 µM [inhibitor, partial curve]	
COc1ccccc1-c1cc([C@H]2CN3CC[C@H]2C[C@@H]3CNC(=O)COc2ccccc2)n(C)n1		inactive: 28.5%
CC[C@H]1CN2CC[C@H]1C[C@@H]2CNC(=O)NC(C)C		inactive: -18.3% [at 115 µM]
Cc1ccc(CN2CCCN(Cc3ccc(C)cc3)S2(=O)=O)cc1	inconclusive: 28.2 µM [inhibitor, single point]	
O=C([C@H]1CN2CC[C@H]1C[C@@H]2Cn1cc(CO)nn1)N1CCCC1		inactive: 19.9% [at 86.2 µM]
CC(C(=O)NCc1cccs1)N1CC=C(c2ccccc2)CC1 (configuration not stated)	inconclusive: 28.2 µM [inhibitor, single point]	
C[N+](C)(C)Cc1cccs1		inactive: 10.6%
C#C[C@@H]1CC2C3CCC4=CC(=O)CCC4C3CCC2(CC)C1O (some centres not stated)		inactive: -2.77%
Cc1cccc(-n2nnnc2C2(N)CCCCC2)c1		inactive: -9.53%
COc1cc2c(cc1Oc1ccccc1)NC(=O)C21CCN(Cc2nccn2C)CC1		inactive: 16.5% [at 86.2 µM]
Cc1ccc2c(n1)N(C)[C@H](CO)CCN(CC(C)C)C2	active: 15.8 µM	
COc1cc2c(cc1-c1cccnc1OC)NC(=O)C21CCN(C(C)=O)CC1		inactive: -9.14% [at 86.2 µM]
C=CCN(C)C[C@H]1CN2CC[C@H]1C[C@@H]2CNC(=O)Nc1ccsc1		inactive: 10.1% [at 86.2 µM]
COc1ccc(C(=O)N2[C@H]3CC[C@@H]2c2cnc(-c4ccc(F)cc4)nc2C3)cc1OC		inactive: -9.09%
COCc1cn(C[C@H]2C[C@@H]3CCN2C[C@@H]3C(=O)NCc2ccccc2OC)nn1		inactive: -3.57% [at 86.2 µM]
CC(C(N)=O)N1CC=C(c2c[nH]c3ccccc23)CC1 (configuration not stated)	inconclusive: 39.8 µM [inhibitor, single point]	
CN(C)c1ccc(/C=C2/C(=N\O)C3CCN2CC3)cc1	inconclusive: 25.1 µM [inhibitor, single point]	
CCOc1ccccc1CN(CCc1ccc2c(c1)OCO2)Cc1ccc(CC)cc1	inconclusive: 31.6 µM [inhibitor, partial curve, poor fit]	

Compound	Potency	activity change, negative = inhibition
Cc1ccccc1-n1c(/C=C/c2ccc(O)cc2)nc2ccccc2c1=O	inconclusive: 28.2 µM [inhibitor, partial curve, poor fit]	
Cc1[nH]nc2c1C(c1ccc(-c3ccc(F)cc3)o1)SCC(=O)N2 (configuration not stated)	inconclusive: 25.1 µM [inhibitor, partial curve, poor fit]	
Cc1ccc(C(=O)NC[C@H]2C[C@@H]3CCN2C[C@@H]3c2cc(-c3ccco3)nc(C)n2)cc1	active: 39.8 µM	
O=C1NC(=O)C(=Cc2ccc(Sc3ccccc3)o2)C(=O)N1	inconclusive: 39.8 µM [inhibitor, partial curve, poor fit]	
Cc1cccc(-n2c(/C=C/c3c[nH]c4ccccc34)nc3ccccc3c2=O)c1	inconclusive: 25.1 µM [inhibitor, partial curve, poor fit]	
CSCC(=O)Nc1ccc2n(c1=O)C[C@H]1C[C@@H]2CN(C(=O)c2ccccc2)C1	inconclusive: 28.2 µM [inhibitor, single point]	
COc1cccc(CNCCc2cccc(F)c2)c1		inactive: -23.3%
CSc1ccc(CN2CCN(C(=O)COc3cccc(C)c3)CC2)cc1	inconclusive: 7.94 µM [inhibitor, partial curve, poor fit]	
COc1cc2c(cc1Oc1cccc(N(C)C)c1)NC(=O)C21CCN(c2ncc(F)cn2)CC1	active: 31.6 µM	
CSCC(=O)N1C[C@@H]2C[C@H](C1)c1c(-c3ccc(NC(C)=O)cc3)ccc(=O)n1C2	active: 28.2 µM	
CCOP(=S)(OCC)Oc1cc(C)oc(=O)c1Cl	inconclusive: 15.8 µM [inhibitor, partial curve, poor fit]	
O=C1/C(=C\c2ccc(Br)cc2)N2CCC1CC2		inactive: -1.87%
O=S(=O)(NC[C@H]1C[C@@H]2CCN1C[C@@H]2CN1CCCC1)c1ccc(Cl)cc1		inactive: -14.6% [at 86.2 µM]
Cc1ccc(C)c(CC(=O)N2CCN(Cc3ccccc3)CC(O)C2)c1 (configuration not stated)	inconclusive: 8.91 µM [inhibitor, partial curve]	
COc1ccc(-c2nc(CN3C(=O)CN=C(c4ccccc4)c4ccccc43)c(C)o2)cc1		inactive: 5.72%
Cc1ccccc1OCC(=O)N1CCN(Cc2nc(N)c3ccccc3n2)CC1		inactive: 5.84%
CN1CCN(C(=O)CCc2ccncc2)CC12CCNCC2		inactive: -7.34%
CCN1C(=O)CCNCC12CCOCC2	inconclusive: 14.1 µM [inhibitor, partial curve]	
CCCS(=O)(=O)N1C[C@@H]2C[C@H](C1)c1c(-c3ccccc3)ccc(=O)n1C2	inconclusive: 39.8 µM [inhibitor, single point]	
CC[C@H]1CN2CC[C@H]1C[C@@H]2CNC(=S)Nc1ccc(C)cc1Br	inconclusive: 39.8 µM [inhibitor, partial curve, poor fit]	
COCc1cc(N2CCN(C)C3(CCC(=O)N(C)CC3)C2)ncn1 (configuration not stated)	inconclusive: 12.6 µM [inhibitor, partial curve]	
COc1ccc(-n2nc(C)c3c2NC(=O)CSC3c2cccc(O)c2)cc1 (configuration not stated)		inactive: 13.9%
Cc1ccccc1C(=O)N1CCC2(CC1)c1nccn1-c1ccccc1CN2CC(C)C		inactive: 12.5%
